According to article PMC10726135:
The list shows a part of the results. At the low end of the ranking the order means little. The protein was read in a cell extract, so binding may be indirect.

These sequences were tested against T1, HNF4alpha2 (COS-7 nuclear extract) (UniProt P41235) (assay: protein-binding microarray). Details: COS-7 nuclear extract on double-stranded Agilent 4x180k PBM; binding buffer, salt, pH and temperature not given; high values mean tight binding; double strand, one strand shown; sequences stand for … in …GCCTAGGGAGATTAGAGTATCGGTCGA.
T1 sequence: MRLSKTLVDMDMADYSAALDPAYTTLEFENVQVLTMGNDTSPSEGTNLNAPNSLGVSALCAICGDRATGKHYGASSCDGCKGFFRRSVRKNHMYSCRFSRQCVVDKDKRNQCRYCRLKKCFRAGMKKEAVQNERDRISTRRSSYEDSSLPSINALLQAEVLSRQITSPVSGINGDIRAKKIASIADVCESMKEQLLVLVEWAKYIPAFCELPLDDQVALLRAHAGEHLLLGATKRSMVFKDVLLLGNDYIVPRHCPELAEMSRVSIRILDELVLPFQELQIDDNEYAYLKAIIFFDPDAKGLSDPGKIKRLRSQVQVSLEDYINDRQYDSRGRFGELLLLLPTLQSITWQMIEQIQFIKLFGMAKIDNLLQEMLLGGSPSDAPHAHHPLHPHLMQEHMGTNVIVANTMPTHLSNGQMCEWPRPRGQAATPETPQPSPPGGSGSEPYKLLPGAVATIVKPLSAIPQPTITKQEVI

Row | Sequence | binding signal (log2 normalized intensity)
1 | GCTGAGGAATTTGGACTTCAGCCCAGGCTG | 3.66
2 | TCTGTTTCCAGAAATCTGACCTCTGCCTCG | 3.73
3 | AGCCTCTATGTCAGGCCATTTCACCTTTGC | 3.72
4 | CTTCAAGTCAGTTGCATGCAACCTTTGTCC | 5.67
5 | CTGACTCACGGCAGCTTGTACCCTTCTTTC | 1.49
6 | ACACTCAGGTCTTTCTGGAGATAACAGTGT | 1.62
7 | CCCCGCCCCGCGTCCGTGCACCCTTCCTCT | 3.84
8 | GTGATAATGGATGGCAAATAAAGGAACTCT | -0.176
9 | TTTATCCTTTTTTGAAGGTTAAAGTCCATT | 7
10 | ACAACCTTTGGCCGTGCATGCTTGGACTCT | 4.59
11 | ACGCACTCGCCTCTCCTGTTCCGGTTGGGT | 0.435
12 | TCTCCTGGAAAGGTTCCACTCTGACTAACT | -1.15
13 | ACAAGGGCATGTAAAGGAGATTATCTAGAC | -1.22
14 | GAGACTGCTCGGCATCCCTGCCGTGGCTGG | -1.13
15 | CATTCCAGGGTGAAATTCAACAGAACTGTT | -1.22
16 | GACCAAAGATCACAGTGAAGGTGAAGAGTG | -0.69
17 | GTGTTTGCCCAGCTTGAATCACTCACTGAC | -1.16
18 | CCACGGAATCCCAGTTCTGATACACTCGCC | -1.16
19 | CAAAGTAAACAAAGATACTCTCATCACTTA | -1.19
20 | TCCACTCCGGGCGATCCGGGCTCCGGGCGC | -1.22
21 | TACATTGAACTTTGAACACCTCTTCTTTCT | 4.75
22 | CTTGGACTGAAGACTGGAACTGGGCTGACT | -1.08
23 | CTCGGCATCATGCCCTTTGGCCCCCAGAGC | 6.14
24 | TTCCTGGATTGTGAAACACAGGACTTGATC | 0.71

Row | Sequence | binding signal (log2 normalized intensity)
25 | ATATTTGCATAATGGAGCAAAGGTCATCCT | 6.33
26 | AAATCTTCAACTGGAGGATAAAGTTCAAGT | 2.64
27 | TGCCCTTCTTGTTAACCTCCTATGATCTTT | 2.81
28 | GGCCTTTCCTGACCCCTCCTCCCCCCGCCG | 5.96
29 | ACTCTCTCAACACTGGCTTCTCTGGCCTAG | -1.14
30 | CTGAGGTGCCCTTACATTTTGCTCTTTGTA | 2.07
31 | GGACGTGTGTGTTCTGGACTTCTCTGCCCT | 2.48
32 | TGGAGGCGGTGCCATTCACAGGAATGTTGG | -0.759
33 | GTGATCAATCAGCAGCAAAGTCCTGGAAGA | -0.809
34 | AGATAAGAGGTGTCATGGCAATAAACAAAA | -1.15
35 | AAGTTAAAACAGCAGAGCACGATGAATAGG | -1.06
36 | TCCTACTTTATCTAAGTAAACTAGTGATGT | 1.67
37 | TCTGTACAGCTCTTGTGCTCTGGACATACC | 0.377
38 | AGGCAGGACATCAAAGAACAAGTATCCTGG | -1.18
39 | AGGAATGTACATAATCTGGACCCAAACGAA | 2.34
40 | TCTGTTTCTCTGTCTCTCTGCACACACAGA | -1.17
41 | CTTCCCTCCACTATTGTCCTATGACCCTGC | 4.03
42 | TAATATTTTTGACTTACCATTTGCTGATAA | -0.862
43 | GCAGCTCAAGGGTGTTCCTGAGTAAATCTC | -1.07
44 | TTTGCTGAAGACAGGCCAGGGTGATCAAAC | 1.11
45 | ACCTTTGACCTGGTACTATGACCTTTCACC | 7.01
46 | TTGCCCCCCTGGGCTCAAGCGATCCTCCCA | 4.62
47 | CAGCATAGTCCTGCCACATTTTTATCCTTT | 1.46
48 | ACATTCGTTAACATCAGCTGAGCAGAGAGG | -0.891

Row | Sequence | binding signal (log2 normalized intensity)
49 | GCTTTGATGTGTGTATCAATGGCCCCAGTG | 2.37
50 | CTCTTTTAGTAACTGACTTTAACTTCAAAG | 0.473
51 | TATGTTTCAGCCAAGAGCGGAAAGAAAGGC | -1.12
52 | CAGCGCCTCCCGGTCACTACAACAACGGCG | -0.851
53 | TCTCCAAACCCATATTCCTATCACCATATC | 0.861
54 | GGGCACTGATAACCTGCATTTGAAAGAGGT | -1.07
55 | CCTTGGCTGTGTGACTCACCTTTGCTCTGA | 3.71
56 | GGGCTCAAGCGATCCTCCCACTTCAGCCTC | -1.11
57 | TCATACCTCTTACCAGATAGATGCTGCTCT | -0.953
58 | ATCACACAACTTTCATTGAACTGCTGGGGG | 0.423
59 | TCGCACCTAAGGGCACCCTTCCTGCTTCCA | -1.09
60 | TACCCTGGGAATGGAGAGAGAGAGAATAGC | -1.24
61 | CAAACACAGATCAGATATGAGATTCCCAGA | -1.14
62 | GGCGGAGAGCTCCGGGGTCACGCGCGTGTG | 1.47
63 | CTGCAATGACAATAAATTATACCAACTATT | -1.06
64 | ATCCTTACACAGCAGCTTTAGTCAGAGATT | -0.896
65 | CAAAAGCTGAGTCCCTGCTTGATAAGACTG | -1.06
66 | AATTGACCTTTGATCACTCATGGGCAAGAT | 5.65
67 | GAAAGCTGGCTTGGAAAAAGCAGGCAACCA | -1.08
68 | GCCAGAACTCAGGGTCTGGTTCCAAAGTCT | 3.41
69 | AGTTAGGTTCTGGCACCTGAAGCTGCCCTT | 1.73
70 | TGAACCCTTGGGGCTTTTGCAATTTAAACT | 0.0972
71 | TCTGATTTCCCCGTCCCAAGCTGAGGTCTG | 2.8
72 | GCACCCGGGCAGCCTGTGGCCAGGCTGCGT | -1.18

Row | Sequence | binding signal (log2 normalized intensity)
73 | CTGTTAACTTCTTATGCATAGATGTTTAGC | 0.46
74 | TTGGGGCCCACAGAGTCCAGAGGTCACTTT | 5.83
75 | AAGACCGGTATTTGAGATATTTTTCAGACC | -0.611
76 | GTTCTTATTTGCTGAGGAAGACTTCATTCA | -1.15
77 | AAACACATGCAATCACACTAATCTGTCAGA | -1.17
78 | TTTCTTCTCTGTAGGTAAACAGTGACTCAT | 2.01
79 | GATAAGAAGACTCCAGGGGACTGCCTCTTC | -1.16
80 | TTCACTGTTTGCTTTTCTTATTTACCGAAA | 0.917
81 | AATTTGAACCAAGATCTGTGAAAGAAAAGT | 0.169
82 | TCACTCAGCAATAAATACCAAAGCCATGGC | -1.12
83 | ATAGCCCAAGTTCAAAGGTTATCTGCTGGC | 4.05
84 | GGAAATACCGACAACGCCAAGGACCGCCAA | -1.13
85 | AGCCTTATCTTCCAGCCCTGTCTCTCAGGT | 0.427
86 | GGTCATCTGAGGGAAAAGATAAGATTATCT | -1.04
87 | CTAAGCGATAAGGAGGAAGGACACTTAGAG | -1.09
88 | GGTCACACAGCTAAGAGCCGCAGAGCTAAT | -0.956
89 | TCCTCCTATGTCAATAGAGCATGAGAACTT | -0.0457
90 | CCGCGCCCCGCCCCCAGTGCACCTTAATAA | 5.22
91 | TACAGAGCTGAAGTTTGCAAACAGTAAAGA | -0.168
92 | TGGAAGGCTGTATGTACACTTGCCCTCTCA | 3.19
93 | TTTGAAGTCTGGTGGCAAGTACCCTTTATC | 2.16
